Our source for the inhibition values is PubChem BioAssay AID485344 (National Center for Advancing Translational Sciences (NCATS), 2010).

About 6,900 (2%) of roughly 340,000 compounds were called active. No stated cut-off is given here; in the data, active means inhibition above about 30%; inactive means below that, where a call was filed. The entries are a selection whose mix differs from that of the whole data set. Where no call is shown, the source filed none.

Sequence of UniProt P14416 (P14416 whole entry, looked up): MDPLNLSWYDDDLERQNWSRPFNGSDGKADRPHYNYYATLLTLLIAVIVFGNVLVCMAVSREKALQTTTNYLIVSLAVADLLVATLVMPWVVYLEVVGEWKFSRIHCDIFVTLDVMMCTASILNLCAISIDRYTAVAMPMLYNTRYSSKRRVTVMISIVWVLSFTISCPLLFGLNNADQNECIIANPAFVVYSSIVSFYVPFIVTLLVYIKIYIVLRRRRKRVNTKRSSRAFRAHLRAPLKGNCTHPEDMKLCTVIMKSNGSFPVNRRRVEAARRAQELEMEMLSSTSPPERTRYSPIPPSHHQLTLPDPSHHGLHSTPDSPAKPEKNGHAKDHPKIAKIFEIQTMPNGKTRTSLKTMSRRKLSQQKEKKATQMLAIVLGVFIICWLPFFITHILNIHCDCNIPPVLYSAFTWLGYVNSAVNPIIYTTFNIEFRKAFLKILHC

The assay deals with D(2) dopamine receptor (Homo sapiens) (UniProt P14416). Nature of the assay: HTS Assay for Allosteric Antagonists of the Human D2 Dopamine Receptor: Primary Screen for Antagonists. Further: 0% is about no effect. The conditions noted are these: HEK293 TREx D2 cells, calcium flux, dopamine EC80; at 10 µM; stronger effect = higher value. The method in brief:
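Calcium flux kinetic readout in an inducible HEK293 TREx D2 line plated overnight at 30 C. After 180 s compound exposure, an EC80 dopamine challenge follows with another 180 s kinetic read to detect antagonism.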
As to `CCOc1ccc(C2CC(=O)n3nc(-c4ccc(C)cc4)nc3S2)cc1OC` (centres undefined), the inhibition was -1.67%.

Consider `CC1=C(C(=O)Nc2ccc(C)cc2C)C(c2ccccc2[N+](=O)[O-])n2ncc(C(=O)Nc3ccccc3)c2N1` (centres undefined), for which the inhibition is -12%.

`CCC1CCCCN1CCCCOc1cccc(Cl)c1` (centres undefined): the inhibition was active: 54.9%.

On to `CCOC(=O)C1CCCN(C(=O)c2ccc3c(c2)N(Cc2ccccc2)C(=O)c2ccccc2S3(=O)=O)C1` (centres undefined), for which the inhibition stood at 1.36%.

As for `CCOc1ccc(NC(=O)c2ccc3c(SCC(=O)O)c4c(nc3c2)CCCC4)cc1`, the inhibition was -10.4%.

For the compound `Cc1ccc(C)c(N2CCN(C(=O)C3CCN(c4nc(-c5ccc(C(C)C)cc5)no4)CC3)CC2)c1`, the inhibition was 3.26%.

Turning to `Cc1ccc(C(=O)N2CCc3cc(CNS(=O)(=O)c4ccc(Cl)s4)ccc32)cc1`, the inhibition was 22.9%.

As to `CCS(=O)(=O)N1CCc2cc(C(=O)NCc3ccc(OC)cc3)ccc21`, the inhibition is 4.18%.

With `CCC(CC)C(=O)Nc1ccc(OCc2cc(=O)n3c4c(sc3n2)CCCC4)cc1`, the inhibition was 4.1%.

On to `O=C(NC1CC1)c1ccc(Cn2c(SCc3cccc(F)c3)nc3cccnc32)cc1`, for which the inhibition was 4.08%.

Turning to `O=C(NCC(c1cccnc1)N1CCc2ccccc2C1)c1ccc(F)c(F)c1` (centres undefined), the inhibition was -3.25%.

As for `O=C(Nc1ccc(Cl)cc1)C1CCN(c2nc3ccccc3nc2C(F)(F)F)CC1`, the inhibition worked out at 6.64%.

`COc1ccc(CCN2C(=O)c3oc4cc(C)cc(C)c4c(=O)c3C2c2ccc(F)cc2)cc1OC` (centres undefined): the inhibition was 10.7%.

Consider `COc1ccccc1N1CCN(C(=O)c2ccc(CS(=O)c3ccccc3C)o2)CC1` (centres undefined), for which the inhibition was determined as 12.5%.

In the case of `COCCc1nn2c(=O)cc(COC(=O)c3ccc4c(c3)OCO4)nc2s1`, the inhibition was determined as 0.0236%.

`CC(=O)Nc1sc(/C(C#N)=C\c2cccc(Cl)c2)nc1-c1ccc(C)cc1`: the inhibition was active: 30.2%.

As for `Cc1ccc(Nc2nc(N)nc(CN3CCN(c4ccccc4F)CC3)n2)cc1`, the inhibition was active: 78.2%.

Regarding `Cc1ccc(NC2=C(c3ccc(C(F)(F)F)cc3)C(=O)c3ccccc32)cc1C`, the inhibition was -3.26%.

Consider `CC(=O)Nc1ccc(C(=O)CSc2nnc(-c3ccccc3)n2-c2ccccc2)cc1`, for which the inhibition amounted to 2.46%.

With `Cc1ccc(S(=O)(=O)c2nc(-c3ccccc3F)oc2N2CCCCC2)cc1`, the inhibition was 23.2%.

For `Cc1ccc(-c2cc(C(=O)NCc3cnn(C)c3C)c3cc(Br)ccc3n2)cc1`, the inhibition came out at 8.61%.

With `COc1ccc(Cl)cc1Nc1sc(C(=O)c2ccccc2)c(N)c1C(=O)Nc1ccccc1`, the inhibition was -13.3%.

Regarding `N#CCc1ccc(NC(=O)/C=C/c2ccc([N+](=O)[O-])o2)cc1`, the inhibition is active: 31.9%.

As to `CC(=O)N1CCc2cc(CNS(=O)(=O)c3ccc(F)cc3)ccc21`, the inhibition was -26.1%.

Turning to `CCc1c(C)sc2c1CCN(Cc1cccc(F)c1)C2c1ccccc1` (centres undefined), the inhibition was -3.86%.

As to `O=C(NCc1cccc(Cl)c1)c1cc2c(s1)-c1ccccc1OC2`, the inhibition was -24.2%.

Take `CCc1ccc(-c2cn3c(n2)sc2cc(C(=O)NC4CCCCCC4)ccc23)cc1`: the inhibition stood at 19.5%.

In the case of `COP(=O)(/C=C/c1ccccc1)C(O)c1ccc(F)cc1` (centres undefined), the inhibition was active: 44.9%.

Regarding `O=C(CN1C(=O)COc2ccc(S(=O)(=O)N3CCCCCC3)cc21)NCc1ccc(Cl)cc1`, the inhibition came to 22.7%.

On to `O=C(NCCCN1CCN(c2ccccc2F)CC1)Nc1ccc(F)cc1`, for which the inhibition is active: 80.7%.

Regarding `CCc1ccc(N=C2NC(=O)CC(C(=O)Nc3ccc(OC)cc3)S2)cc1` (centres undefined), the inhibition is -9.06%.

For `COc1cc2c(cc1OC)C(COc1ccccc1OC)N(C(=O)CC(C)C)CC2` (centres undefined), the inhibition came out at 28.2%.

For `CC(=O)CC(c1ccccc1)S(=O)(=O)c1ccc([N+](=O)[O-])cc1` (centres undefined), the inhibition is active: 70.3%.

On to `CCOC(=O)c1ccccc1NC(=O)Cn1cc(C(=O)c2cccc(OC)c2)c(=O)c2ccc(C)nc21`, for which the inhibition was -11.2%.

As for `Cc1cccc(-c2nc(S(=O)(=O)c3ccc(F)cc3)c(N3CCN(c4ccccc4)CC3)o2)c1`, the inhibition is 0.914%.

With `Cc1ccc(CCNC(=O)c2ccc3c(c2)N(Cc2cccc(C)c2)C(=O)c2ccccc2S3(=O)=O)cc1`, the inhibition is 6.2%.

Regarding `CC(C)c1ccc(NC(=O)c2cc3c(s2)-c2ccccc2SC3)cc1`, the inhibition amounted to 13.7%.

As to `COC(=O)CCC(=O)OC1(C)C(=O)C2=CN(C(CO)CO)C(c3ccc(OC)cc3)=CC2=C(Br)C1=O` (centres undefined), the inhibition is active: 30%.

In the case of `Cc1ccc(O)c(C(CC(=O)NCC2(c3ccccc3)CCCC2)c2ccccc2)c1` (centres undefined), the inhibition was -8.86%.

On to `CCc1c(C)nc(SCC(=O)N2CCN(c3ccccc3OC)CC2)[nH]c1=O`, for which the inhibition is -3.48%.

As to `CC(=O)N1CCOc2cc(S(=O)(=O)Nc3cccc(C(F)(F)F)c3)c(Cl)cc21`, the inhibition was -26.3%.

In the case of `CCOC(=O)c1ccccc1NC(=O)C(=O)Nc1ccc2nc3n(c(=O)c2c1)CCCCC3`, the inhibition is -6.34%.

In the case of `COc1ccc(NC(=O)C2CCN(S(=O)(=O)c3ccc4[nH]c(=O)ccc4c3)CC2)c(OC)c1`, the inhibition was determined as 7.17%.

In the case of `Cc1cn2c(=O)cc(COc3cccc(NC(=O)c4ccccc4C)c3)nc2s1`, the inhibition amounted to 3.44%.

`COc1ccc(OC)c(NC(=O)Cc2coc3ccc(C(C)C)cc23)c1`: the inhibition was -10.1%.

Turning to `CCOC(=O)c1[nH]c(C)c(CCC(=O)NCc2ccccc2)c1C`, the inhibition was 5.91%.

Take `CCOC(=O)c1c(-c2ccccc2)oc2ccc(N(C(C)=O)S(=O)(=O)c3cc(C)ccc3C)cc12`: the inhibition is -7.27%.

For the compound `Cc1cc(C)cc(NC(=O)N2CCC(N3CCCCC3)CC2)c1`, the inhibition was -1.21%.

In the case of `COc1ccc(S(=O)(=O)N2CCN(c3ccccc3F)CC2)cc1-c1noc(C)n1`, the inhibition was -15%.

In the case of `Fc1ccc(-c2noc3ncnc(N4CCN(c5ccccc5)CC4)c23)cc1`, the inhibition was -3.49%.

On to `COc1ccc(OC)c(NC(=O)c2cc3c(=O)oc4ccccc4c3s2)c1`, for which the inhibition was determined as 13%.

For the compound `Cc1ccc(C)c(NC(=O)c2ccc3c(O)c(S(=O)(=O)c4ccc(Cl)cc4)c(=O)[nH]c3c2)c1`, the inhibition is -3.68%.

Regarding `CCN(CC)c1nn2c(=O)c(C(=O)NCCc3ccccc3)cnc2s1`, the inhibition was 0.287%.

With `CCOc1ccc(-c2nonc2NC(=O)c2oc3cc(C)ccc3c2C)cc1`, the inhibition is -4.62%.

As for `CCCCSCCCNC(=O)CN1C(=O)c2cccnc2Oc2ccc(Cl)cc21`, the inhibition was -7.88%.

As to `CCN(CC)C(=O)C1CC(c2ccc(OC)cc2)=NO1` (centres undefined), the inhibition was active: 31.3%.

For `CCOC(=O)CSc1nc2ccc(NC(=O)c3ccc(C)cc3)cc2s1`, the inhibition turned out to be 1.56%.

Consider `CCc1ccc(CNC(=O)Cc2ccc(NC(=O)N3CCSc4ncccc43)cc2)cc1`, for which the inhibition amounted to 1.19%.

For `COc1cccc(N2CCN(C(=O)C(CCSC)NS(=O)(=O)c3ccc4c(c3)oc(=O)n4C)CC2)c1` (centres undefined), the inhibition was 4.24%.

For `O=C(O)c1ccc2c(c1)ncn2-c1ccc(F)c(F)c1`, the inhibition came out at 21.6%.

In the case of `COc1ccc(NC(=O)C2=C(C)Nc3ncnn3C2c2ccc(O)cc2)cc1` (centres undefined), the inhibition was -6.51%.

For the compound `COc1ccc(C(=O)NCCC2=CCCCC2)cc1OC`, the inhibition is active: 34.5%.

As to `COc1ccc2ccccc2c1-c1sc(Nc2ccccc2)n[n+]1-c1ccc(F)cc1`, the inhibition was active: 32%.

For `CCc1ccc(CNC(=O)c2ccc(OC)c(OC3CCN(C(C)C)CC3)c2)nc1`, the inhibition was active: 42%.

As for `CCOC(=O)CNC(c1ccccc1)c1cc(Br)ccc1NC(=O)CCN1CCOCC1` (centres undefined), the inhibition was active: 37.9%.

With `CCOC(=O)c1ccc(NC(=O)CCCc2nc(-c3ccccc3Cl)no2)cc1`, the inhibition was -6.87%.

Consider `COc1ccc(/C(C)=N/Nc2nccnc2Cl)cc1`, for which the inhibition was active: 35.7%.

As to `CCOc1ccc(-c2cc(NC(=O)Nc3cccc(C(C)=O)c3)c(C(=O)OC)s2)cc1`, the inhibition was -1.05%.

As for `CCOc1ccc(S(=O)(=O)NCC(c2ccco2)S(=O)(=O)c2cccs2)cc1` (centres undefined), the inhibition was found to be 9.36%.

Take `Cc1ccc(NC(=O)c2cnn3c(C(F)F)cc(-c4ccccc4)nc23)c(C)c1`: the inhibition stood at 2.31%.

With `COc1ccc(OC)c(NC(=O)C2CCCN(S(=O)(=O)c3c(C)nn(C)c3C)C2)c1` (centres undefined), the inhibition was -2.43%.

For the compound `Cc1ccc(NC(=O)Nc2nnc(N(CC(C)C)CC(C)C)s2)cc1Cl`, the inhibition came out at 6.35%.

On to `COc1ccc(N2CCN(C(=O)CCc3c(C)nn(-c4ccc(N5CCCC5)nn4)c3C)CC2)cc1`, for which the inhibition came out at 6.5%.

As to `CCOC(=O)c1cc(-c2ccccc2)n(-c2cccc(C(=O)Nc3ccc(F)c(F)c3)c2)c1C`, the inhibition was -4.65%.

In the case of `COc1c(C)cc(S(=O)(=O)NCCc2c(C)[nH]c3ccccc23)c(C)c1C`, the inhibition came to 7.13%.

Consider `CC(C)(CN1CCN(Cc2ccccc2)CC1)NS(=O)(=O)c1ccc(Cl)cc1`, for which the inhibition was active: 43.6%.

As to `Cc1cc(Nc2cccc([N+](=O)[O-])c2)n2c(nc3ccccc32)c1C#N`, the inhibition was active: 34.9%.

Take `Cc1c(NC(=O)c2cc(-c3ccc(Cl)c(Cl)c3)on2)c(=O)n(-c2ccccc2)n1C`: the inhibition was -3.58%.

With `COc1ccccc1CNC(=O)CCn1c(=O)c2ccccc2n(CC(=O)Nc2cccc(Cl)c2)c1=O`, the inhibition was 0.651%.

As for `Cc1ccc(S(=O)(=O)Cc2ccc(C(=O)NCCCN3CCCC3=O)o2)cc1`, the inhibition is active: 34%.

In the case of `Cc1ccc(-n2ncc(C(=O)N3CCN(c4cccc(C)c4)C(C)C3)c2C2CCN(C(=O)OC(C)(C)C)CC2)cc1` (centres undefined), the inhibition stood at 12.3%.

On to `Cc1nn(CCCC(=O)NCc2ccc(F)cc2)c(=O)c2c1sc1ccccc12`, for which the inhibition came out at 4.7%.

Take `CCOc1ccc(N2CC(c3nc4ccccc4n3Cc3cccc(Cl)c3)CC2=O)cc1` (centres undefined): the inhibition is -5.2%.

For the compound `C/C(=N\NC(=S)NCC(C)(C)C)c1cc(F)cc(F)c1O`, the inhibition was active: 36.7%.

Consider `Cc1cc(C)cc(C(=O)Nc2ccc(-c3nc4ncccc4o3)cc2)c1`, for which the inhibition came out at 8.05%.

For the compound `CCOc1ccc2nc(NC(=O)c3cc(=O)c4ccc(C)cc4o3)sc2c1`, the inhibition is 12.4%.

Regarding `CCN1CCSc2ccc(C(=O)NC(C)c3ccccc3)cc21` (centres undefined), the inhibition came out at 12.6%.

Consider `O=C(NCc1ccc(Cl)cc1)c1cc(S(=O)(=O)N2CCCCC2)c[nH]1`, for which the inhibition is 9.44%.

Consider `Cc1c2cnn(CC(=O)N3CCN(c4ccc(F)cc4)CC3)c(=O)c2c(C)n1Cc1ccc(F)cc1`, for which the inhibition turned out to be 1.06%.

With `Cc1cc(NS(=O)(=O)c2ccc(NC(=O)COc3ccc(Br)cc3C)cc2)no1`, the inhibition is -6.38%.

For the compound `CCCCc1nn2c(=O)cc(COC(=O)c3ccccc3NC(=O)C(C)(C)C)nc2s1`, the inhibition amounted to 8.57%.

For the compound `Cc1[nH]c(=O)[nH]c(=O)c1C1N2CC3(C(C)C)CN1CC(C(C)C)(C2)C3=O` (centres undefined), the inhibition amounted to 6.44%.

Turning to `Cc1ccc(N2CCn3c2nc2c3c(=O)n(CCc3ccccc3)c(=O)n2C)cc1C`, the inhibition turned out to be 16.4%.

In the case of `CCC1CCCCN1C(=O)CSc1nc2c(cnn2-c2ccc(C)cc2)c(=O)[nH]1` (centres undefined), the inhibition is active: 33.2%.
